# Several values for one entry are separate records, joined by “and”; a condition that tells them apart may be missing. Equal entries are not always repeated. The shares of active, inactive and inconclusive entries below differ from those in the screen. Potencies of inconclusive entries are doubtful fits and often do not repeat. A structure can be active in one record and inactive in another. Activity calls are given as the source filed them. Calls come from the whole dose curve; as a rule, active = well fitted curve in the direction sought with a large enough effect in the repeat runs; inconclusive = weak or mixed curves; inactive = no such curve, though single readings can be large; an effect the other way counts as inactive or inconclusive.
# Columns and labels:
# [1] = qHTS RealTime-Glo MT Cell Viability Assay in HEK293 cells - 32 hour (AID 1224868); details: RealTime-Glo luminescence; series mostly up to 76.8 µM; note: nearly all actives have a fitted effect of over 50% in size
# Method in brief: (§1)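 Nonlytic real-time viability readout: viable cells convert prosubstrate to NanoLuc substrate, giving luminescence proportional to live cell number. HEK293, 600 cells/well, compound added after 5 h, continuous culture at 37 C.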
# [2] = qHTS RealTime-Glo MT Cell Viability Assay in HEK293 cells - 40 hour (AID 1224874); details: RealTime-Glo luminescence; max response: stronger effect = lower value; note: nearly all actives have a fitted effect of over 50% in size
# Method in brief: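 Nonlytic bioluminescent viability monitoring. HEK293 at 600 cells/well with reagent; 5 h settle; compound transfer by pintool; plates held at 37 C and read at set time points.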
# [3] = qHTS RealTime-Glo MT Cell Viability Assay in HepG2 cells - 8 hour (AID 1224873); details: RealTime-Glo luminescence; series mostly up to 76.8 µM; note: nearly all actives have a fitted effect of over 55% in size
# Method in brief: (§2)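 Real-time viability: cells seeded at 600 per well together with NanoLuc and cell-permeant prosubstrate, compounds added after 5 h incubation. Luminescence tracked at 0, 8, 16, 24, 32 and 40 h of exposure.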
# [4] = A CellTox Green Cytotoxicity Assay to monitor cytotoxicity in HEK293 cells - 0 hour (AID 1224869); details: CellTox Green fluorescence; series mostly up to 76.8 µM; note: nearly all actives have a fitted effect of over 50% in size
# Method in brief: (§3)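 Cytotoxicity was tracked continuously in HEK293 cells by a DNA-binding dye excluded from viable cells. Compounds were transferred in DMSO 5 h after seeding; fluorescence was recorded at intervals up to 40 h.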
# [5] = A CellTox Green Cytotoxicity Assay to monitor cytotoxicity in HEK293 cells - 24 hour (AID 1224875); details: CellTox Green fluorescence; series mostly up to 76.8 µM; note: nearly all actives have a fitted effect of over 45% in size
# Method in brief: as §3
# [6] = qHTS RealTime-Glo MT Cell Viability Assay in HEK293 cells - 16 hour (AID 1224872); details: RealTime-Glo luminescence; series mostly up to 76.8 µM; note: nearly all actives have a fitted effect of over 50% in size
# Method in brief: as §1
# [7] = A CellTox Green Cytotoxicity Assay to monitor cytotoxicity in HEK293 cells - 40 hour (AID 1224871); details: CellTox Green fluorescence; series mostly up to 76.8 µM; note: nearly all actives have a fitted effect of over 45% in size
# Method in brief: as §3
# [8] = qHTS RealTime-Glo MT Cell Viability Assay in HepG2 cells - 40 hour (AID 1224870); details: RealTime-Glo luminescence; series mostly up to 76.8 µM; note: nearly all actives have a fitted effect of over 50% in size
# Method in brief: as §2
# % is set by controls: 0 for no effect and ±100 for the full control effect; potency is the fitted concentration of half-maximal effect; tags give direction and shape of the fitted curve.
smiles,measurement,setting,value
O=C(O)C(Cl)Br (stereo unspecified),Potency,[1],"inconclusive: 24.8 µM [cytotoxic, single point]"
same,Potency,[2],"inconclusive: 24.8 µM [cytotoxic, single point]"
Fc1ccc(Oc2ccnc3cc(Cl)cc(Cl)c23)cc1,Potency,[1],active: 11 µM
same,Potency,[3],inactive
CCN(CCO)CCO,Potency,[4],inactive
CCOP(=S)(OCC)Oc1ncn(-c2ccccc2)n1,Potency,[1],"inconclusive: 54.9 µM [cytotoxic, single point]"
same,Potency,[2],"inconclusive: 54.9 µM [cytotoxic, single point]"
C=CCN1CC[C@]23c4c5ccc(O)c4O[C@H]2C(=O)CC[C@@]3(O)[C@H]1C5,Potency,[4],inactive
CC(C)(C)C(=O)C(Oc1ccc(Cl)cc1)n1cncn1 (stereo unspecified),Potency,[1],"inconclusive: 34.6 µM [cytotoxic, partial curve]"
same,Potency,[2],"inconclusive: 48.9 µM [cytotoxic, partial curve]"
same,Potency,[5],inactive
CN(C)c1ccc(N(C)C)cc1,Potency,[1],"inconclusive: 6.94 µM [rising, partial curve]"
same,Potency,[2],"inconclusive: 4.38 µM [rising, partial curve]"
CCCCN(N=O)C(=N)N[N+](=O)[O-],Potency,[1],"inconclusive: 56.1 µM [cytotoxic, single point]"
same,Potency,[3],inactive
same,Potency,[2],"inconclusive: 56.1 µM [cytotoxic, single point]"
same,Potency,[5],inactive
c1ccc(N=NNc2ccccc2)cc1,Potency,[1],inconclusive: 63.8 µM [cytotoxic]
same,Potency,[6],"inconclusive: 50.7 µM [cytotoxic, single point]"
same,Potency,[2],"inconclusive: 63.8 µM [cytotoxic, partial curve, poor fit]"
same,Potency,[5],"active: 50.7 µM and inconclusive: 49 µM [activator, single point]"
O=[N+]([O-])[O-].[Tl+],Potency,[1],"inconclusive: 34.9 µM [cytotoxic, partial curve]"
same,Potency,[2],"inconclusive: 27.7 µM [cytotoxic, partial curve]"
Cc1cc(=O)[nH]o1,Potency,[1],inactive
same,Potency,[3],inactive
Nc1ccc(Cl)cc1,Potency,[1],"inconclusive: 22.3 µM [cytotoxic, partial curve]"
same,Potency,[6],"inconclusive: 39.6 µM [cytotoxic, partial curve, poor fit]"
same,Potency,[2],"inconclusive: 25 µM [cytotoxic, full curve]"
same,max response,[2],inactive: -5.43% and inactive: 1.39%
[Cl-].[Cl-].[Sn+2],Potency,[1],"inconclusive: 21.6 µM [rising, full curve]"
same,Potency,[2],"inconclusive: 21.6 µM [rising, full curve]"
O=C(O)CC(O)(CC(=O)O)C(=O)O,Potency,[1],inactive
same,Potency,[5],"inconclusive: 7.76 µM [activator, single point]"
COP(N)(=O)SC (stereo unspecified),Potency,[4],"inconclusive: 21.5 µM [activator, single point]"
same,Potency,[7],"inconclusive: 21.5 µM [activator, single point]"
same,Potency,[3],inactive
same,Potency,[5],"inconclusive: 21.5 µM [activator, single point]"
C[C@]12CCC(=O)C(O)=C1CC[C@@H]1[C@@H]2CC[C@]2(C)C(=O)CC[C@@H]12,Potency,[1],"inconclusive: 17.4 µM [cytotoxic, partial curve, poor fit]"
same,Potency,[2],"inconclusive: 21.9 µM [cytotoxic, partial curve, poor fit]"
same,Potency,[5],inactive
Cc1ccc(-c2c(Cl)nc(C#N)n2S(=O)(=O)N(C)C)cc1,Potency,[1],"inconclusive: 43.6 µM [cytotoxic, single point]"
same,Potency,[2],"inconclusive: 43.6 µM [cytotoxic, partial curve]"
NNC(=O)c1cccnc1,Potency,[1],inactive
same,max response,[2],inactive: 12.4%
COC(=O)C(C)N(C(=O)Cc1ccccc1)c1c(C)cccc1C (stereo unspecified),Potency,[1],"inconclusive: 43.6 µM [cytotoxic, partial curve, poor fit]"
same,Potency,[6],"inconclusive: 38.9 µM [cytotoxic, partial curve, poor fit]"
same,Potency,[2],"inconclusive: 38.9 µM [cytotoxic, partial curve, poor fit]"
CC#C[C@]1(O)CC[C@H]2[C@@H]3C[C@H](C)C4=CC(=O)CC[C@]4(C)[C@H]3CC[C@@]21C,Potency,[1],"inconclusive: 19 µM [cytotoxic, partial curve]"
same,Potency,[2],"inconclusive: 19 µM [cytotoxic, partial curve]"
O=S(=O)(c1ccc(Cl)cc1)c1cc(Cl)c(Cl)cc1Cl,Potency,[1],"inconclusive: 21.8 µM [cytotoxic, partial curve, poor fit]"
same,Potency,[3],"inconclusive: 54.9 µM [falling, partial curve, poor fit]"
CCNc1nc(NC(C)C)nc(SC)n1,Potency,[1],"inconclusive: 12.3 µM [cytotoxic, partial curve]"
same,Potency,[2],"inconclusive: 19.5 µM [cytotoxic, partial curve]"
same,max response,[2],inactive: -1.45%
CCC(COC(=O)c1cc(OC)c(OC)c(OC)c1)(c1ccccc1)N(C)C (stereo unspecified),Potency,[1],"inconclusive: 26.8 µM [cytotoxic, single point]"
same,Potency,[2],"inconclusive: 26.8 µM [cytotoxic, single point]"
c1coc(-c2nc3ccccc3[nH]2)c1,Potency,[1],"inconclusive: 49 µM [cytotoxic, partial curve]"
same,Potency,[6],"inconclusive: 43.6 µM [cytotoxic, partial curve]"
same,Potency,[2],"inconclusive: 43.6 µM [cytotoxic, partial curve]"
O=C(NC(=O)c1c(F)cccc1F)Nc1ccc(Cl)cc1,Potency,[1],"inconclusive: 13.8 µM [cytotoxic, full curve] and inconclusive: 15.5 µM [cytotoxic, full curve]"
same,Potency,[2],"inconclusive: 11 µM [cytotoxic, full curve] and inconclusive: 9.77 µM [cytotoxic, full curve]"
Nc1n[nH]c(N)n1,Potency,[1],"inconclusive: 25 µM [cytotoxic, full curve]"
same,Potency,[2],"inconclusive: 25 µM [cytotoxic, full curve]"
CC1(C)[C@H](C=C(Cl)Cl)[C@@H]1C(=O)O[C@@H](C#N)c1cccc(Oc2ccccc2)c1,Potency,[1],inactive
same,Potency,[6],inactive
same,Potency,[5],inactive
CC(CC(C#N)(c1ccccc1)c1ccccc1)N(C)C (stereo unspecified),Potency,[1],"inconclusive: 27.4 µM [cytotoxic, partial curve]"
same,Potency,[2],"inconclusive: 27.4 µM [cytotoxic, partial curve]"
O=C(O)C(Cl)(Cl)Cl,Potency,[1],inactive
same,Potency,[2],"inconclusive: 49 µM [rising, single point]"
Cc1cc(Cl)ccc1N,Potency,[4],active: 38.9 µM
Oc1ccc(Cl)c(Cl)c1,Potency,[1],"inconclusive: 60.7 µM [cytotoxic, single point]"
same,Potency,[5],inactive
CCCCN=C=O,Potency,[1],inactive
same,max response,[2],inactive: 2.49%
Cc1ncsc1CCCl,Potency,[7],inactive
Nc1ccc(-c2ccc(N)cc2)cc1,Potency,[8],inactive
O=[N+]([O-])C(Br)Br,Potency,[8],"inconclusive: 61.8 µM [falling, partial curve, poor fit]"
same,Potency,[7],"inconclusive: 7.78 µM [activator, partial curve, poor fit]"
same,Potency,[2],active: 55 µM
same,Potency,[5],"inconclusive: 12.3 µM [activator, single point]"
CNC(=O)O/N=C(/CSC)C(C)(C)C,Potency,[8],inactive
same,Potency,[6],inactive
CC(=O)C(Cl)C(=O)N(C)C (stereo unspecified),Potency,[7],"inconclusive: 54.9 µM [activator, single point]"
O=[N+]([O-])c1ccc(Cl)c(Cl)c1,Potency,[7],"inconclusive: 61.6 µM [activator, single point]"
OCCOc1ccccc1,Potency,[7],inactive
Cc1cc2c3c(c1)C(c1ccccc1)=N[C@@H](NC(=O)c1ccncc1)C(=O)N3CC2,Potency,[8],inactive
same,max response,[2],inactive: -16.5%
Nc1ccc(Sc2ccc(N)cc2)cc1,Potency,[8],"inconclusive: 49 µM [phenotype inactive, partial curve, poor fit]"
same,Potency,[2],"inconclusive: 1.1 µM [cytotoxic, single point]"
C1CN2CCN1CC2,Potency,[4],active: 21.9 µM
same,Potency,[6],"inconclusive: 54.9 µM [rising, partial curve, poor fit]"
C[N+](C)=CCl,Potency,[8],inactive
Nc1ccccc1,Potency,[4],"inconclusive: 26.8 µM [activator, single point]"
same,Potency,[7],"inconclusive: 26.8 µM [activator, single point]"
same,Potency,[5],"inconclusive: 26.8 µM [activator, single point]"
CCCC[n+]1ccccc1,Potency,[7],inactive
Nc1cccnc1,Potency,[7],inactive
NC(=O)C(Cl)Cl,Potency,[7],inactive
O=[N+]([O-])c1ccccc1O,Potency,[8],inactive
O.O.O.O.O.O.O=S(=O)([O-])[O-].[Ni+2],Potency,[8],"inconclusive: 26.4 µM [rising, single point]"
Cl/C=C\Cl,Potency,[4],inactive
same,Potency,[5],inactive
CCCCCCCCCCCC[N+](C)(C)CCOc1ccccc1,Potency,[8],active: 19.5 µM and active: 6.01 µM
same,Potency,[7],active: 19.5 µM and active: 23.9 µM
Cc1cc(Cl)ccc1N=CN(C)C,Potency,[8],"inconclusive: 21.9 µM [falling, single point]"
C=CC(=O)OCCO,Potency,[7],"inconclusive: 44.3 µM [activator, partial curve, poor fit]"
N#CNC#N,Potency,[4],inactive
same,Potency,[6],inactive
CC(=O)[O-].CC(=O)[O-].[Co+2],Potency,[7],inactive
C=C1CC[C@@]2(O)[C@H]3Cc4ccc(O)c5c4[C@@]2(CCN3CC2CC2)[C@H]1O5,Potency,[7],"inconclusive: 12 µM [activator, single point]"
CCSC(=O)Cl,Potency,[8],inactive
CCN(CC)C(=S)[S-].CCN(CC)C(=S)[S-].[Zn+2],Potency,[8],active: 10.9 µM
same,Potency,[3],"inconclusive: 13.7 µM [falling, full curve]"
same,Potency,[2],active: 2.73 µM
same,Potency,[5],active: 15.4 µM
